{"source": "PubChem BioAssay AID504332", "about": "(National Center for Advancing Translational Sciences (NCATS), 2011)", "note": "In all, about 350,000 compounds went through this assay and about 31,000 (8.9%) were called active. The inconclusive results got no clear call from the source; some entries with a clear call stand among them for comparison. Calls follow the shape of the dose curve; as a rule, active = well fitted inhibition curve with a large enough effect; inconclusive = small, poorly fitted or top-dose-only effect; inactive = no such curve, though single readings can be large or run the other way. A potency beside an inconclusive call is a rough fit, not a confirmed value. % is scaled to controls: 0 for no effect and ±100 for the full control effect; potency is read from the fitted curve at half-maximal effect; tags tell the direction and shape of the fitted curve."}
{"target": "Histone-lysine N-methyltransferase EHMT2 (Homo sapiens) (UniProt Q96KQ7)", "sequence (Q96KQ7 whole entry, looked up)": "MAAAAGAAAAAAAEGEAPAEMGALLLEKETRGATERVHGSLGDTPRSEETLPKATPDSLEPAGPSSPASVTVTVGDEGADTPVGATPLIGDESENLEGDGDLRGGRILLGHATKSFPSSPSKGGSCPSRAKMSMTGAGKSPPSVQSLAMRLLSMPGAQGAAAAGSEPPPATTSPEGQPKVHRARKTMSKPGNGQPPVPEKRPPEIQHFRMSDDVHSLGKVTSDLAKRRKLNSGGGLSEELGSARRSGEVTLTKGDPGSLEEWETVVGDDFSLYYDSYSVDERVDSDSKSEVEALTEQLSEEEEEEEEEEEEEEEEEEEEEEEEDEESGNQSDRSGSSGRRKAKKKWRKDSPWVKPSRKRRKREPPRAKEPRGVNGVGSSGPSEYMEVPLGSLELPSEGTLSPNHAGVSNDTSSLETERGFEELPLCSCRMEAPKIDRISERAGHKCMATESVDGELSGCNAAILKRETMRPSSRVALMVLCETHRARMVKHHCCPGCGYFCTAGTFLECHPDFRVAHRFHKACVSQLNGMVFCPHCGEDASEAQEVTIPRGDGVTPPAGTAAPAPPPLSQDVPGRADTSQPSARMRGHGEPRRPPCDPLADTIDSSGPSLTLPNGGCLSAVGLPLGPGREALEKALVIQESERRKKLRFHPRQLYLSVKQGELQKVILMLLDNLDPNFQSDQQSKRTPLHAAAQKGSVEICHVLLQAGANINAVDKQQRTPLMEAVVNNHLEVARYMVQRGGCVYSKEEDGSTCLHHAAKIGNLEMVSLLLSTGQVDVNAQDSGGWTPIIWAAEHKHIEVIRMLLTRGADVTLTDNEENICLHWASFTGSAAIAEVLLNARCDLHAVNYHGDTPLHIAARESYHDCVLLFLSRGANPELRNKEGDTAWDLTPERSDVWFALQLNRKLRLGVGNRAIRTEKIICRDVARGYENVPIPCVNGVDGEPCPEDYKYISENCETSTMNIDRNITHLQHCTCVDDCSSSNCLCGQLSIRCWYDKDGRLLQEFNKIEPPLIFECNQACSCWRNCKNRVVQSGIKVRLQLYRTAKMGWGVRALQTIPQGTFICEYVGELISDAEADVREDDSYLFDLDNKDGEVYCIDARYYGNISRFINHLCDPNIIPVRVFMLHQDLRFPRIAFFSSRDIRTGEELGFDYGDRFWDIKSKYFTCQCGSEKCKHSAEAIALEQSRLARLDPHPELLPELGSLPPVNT", "test": "qHTS Assay for Inhibitors of Histone Lysine Methyltransferase G9a; also: nearly all actives have a fitted effect of over 75% in size", "details": "G9a H3K9 monomethylation, AlphaScreen, 2 h; activity, negative = inhibition: at 59 µM (top of the series) unless noted", "in_short": "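G9a (20 nM) preincubated 15 min RT with compounds, then 500 nM biotinylated H3K9 peptide and 20 uM SAM added; 2 h RT reaction. Monomethyl-H3K9 product detected by AlphaScreen with anti-H3K9me1 antibody, streptavidin donor and anti-rabbit IgG acceptor beads.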"}
{"smiles": "CC(=O)N(Cc1cc(=O)[nH]c2ccccc12)c1ccccc1", "activity, negative = inhibition": "inconclusive: -89.9% [inhibitor]"}
{"smiles": "COc1cccc(CN2CCNC(=O)C2CC(=O)NCCn2ccc3ccccc32)c1OC", "note": "(stereo not given)", "Potency": "active: 39.8 µM"}
{"smiles": "COCCN(C(=O)CSc1cc(C)c2ccccc2n1)c1c(N)n(CC(C)C)c(=O)[nH]c1=O", "activity, negative = inhibition": "inactive: 2.04% [at 12.7 µM]"}
{"smiles": "COc1ccccc1CN1CCN(C2CCN(C(=O)NC(C)C)CC2)C(=O)C1=O", "activity, negative = inhibition": "inactive: -7.47% [at 12.7 µM]"}
{"smiles": "CC(=O)OCC1(C)CN(c2ccccc2)N(C(C)=O)C1=O", "note": "(stereo not given)", "Potency": "active: 25.1 µM"}
{"smiles": "CCOc1cc(C(=O)NCc2ccc(-c3nc4ccccc4o3)cc2)cc(OCC)c1OCC", "Potency": "active: 28.2 µM"}
{"smiles": "Cc1c(C(=O)N2CCCC2)sc(NC(=O)c2ccco2)c1C#N", "Potency": "inconclusive: 39.8 µM [inhibitor, single point]"}
{"smiles": "COc1ccc(N2C(=O)c3cccc4cccc(c34)C2=O)nn1", "activity, negative = inhibition": "inactive: -3.86% [at 12.7 µM]"}
{"smiles": "c1ccc(Cn2c(-c3ccco3)nc3nc4ccccc4nc32)cc1", "Potency": "inactive"}
{"smiles": "Cc1ccc(NC(=O)c2ccc3[nH]c(C)cc(=O)c3c2)c(C)c1", "Potency": "inconclusive: 5.01 µM [inhibitor, single point]"}
{"smiles": "CS(=O)(=O)N1CCCC(C(=O)NCCCN2CCN(Cc3ccccc3)CC2)C1", "note": "(stereo not given)", "activity, negative = inhibition": "inconclusive: -107% [inhibitor] [at 102 µM]"}
{"smiles": "Cc1ccc(S(=O)(=O)Nc2cc(C(F)(F)F)ccc2N2CCOCC2)cc1C", "Potency": "inconclusive: 89.1 µM [inhibitor, single point]"}
{"smiles": "CCOC(=O)c1cnc(-n2nc(C)cc2C)nc1Nc1ccc2c(c1)OCO2", "Potency": "inconclusive: 15.8 µM [inhibitor, single point]"}
{"smiles": "COc1ccc(O)c(-c2c(-c3ccc(Cl)cc3)n[nH]c2C)c1", "Potency": "active: 25.1 µM"}
{"smiles": "Cc1ccc(CN=c2c([N+](=O)[O-])nn(-c3ccc(Cl)cc3)n2O)cc1", "Potency": "active: 50.1 µM"}
{"smiles": "O=C(CSc1nc(Cc2ccccc2)nc2ccccc12)Nc1nc2c(s1)CCCC2", "Potency": "inconclusive: 28.2 µM [inhibitor, single point]"}
{"smiles": "COc1cc2ccccc2cc1C(=O)Nc1ccc2oc(-c3ccccc3)nc2c1", "Potency": "inactive"}
{"smiles": "CCOC(=O)C1=C(C)N(C)C(=O)NC1c1c(C)nn(-c2ccccc2)c1C", "note": "(stereo not given)", "Potency": "inconclusive: 89.1 µM [inhibitor, single point]"}
{"smiles": "Cc1nn(Cc2ccccc2Cl)c(C)c1C(=O)NC1=NCCS1", "Potency": "inconclusive: 35.5 µM [inhibitor, single point]"}
{"smiles": "Fc1ccccc1/C=C1\\CCCC2=C1Nc1ncnn1C2c1ccccc1F", "note": "(stereo not given)", "Potency": "active: 35.5 µM"}
